# Hit rate of the full screen: of about 50,000 compounds, about 800 (1.6%) showed an effect of 50% or more. The list shows a part of the results.
# Target: Bcl-2-like protein 10 (Homo sapiens) (UniProt Q9HD36)
# Test: TR3 peptide-Bcl-B binding displacers, biochemical primary FP assay, phenotype converters (AID 1240);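 also: 0% = Bcl-B with tracer peptide and DMSO and 100% = tracer peptide lacking Bcl-B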
# Details: GST-Bcl-B / FITC-TR3 peptide fluorescence polarization; stronger effect = higher value; compound at 3.75 mg/L
# UniProt Q9HD36, sequence (Q9HD36 whole entry, looked up): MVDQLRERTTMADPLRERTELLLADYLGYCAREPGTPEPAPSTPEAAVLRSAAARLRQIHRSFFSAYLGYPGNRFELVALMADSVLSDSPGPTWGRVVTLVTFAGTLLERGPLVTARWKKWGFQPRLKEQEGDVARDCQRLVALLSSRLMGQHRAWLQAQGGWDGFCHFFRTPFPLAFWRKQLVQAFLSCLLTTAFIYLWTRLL
row,Structure (SMILES),displacement [%]
1,O=C(Nc1ccccc1C(=O)N1CCOCC1)c1ccncc1,-4.5
2,Oc1ccc2ccccc2c1C=Nc1ccc2oc(-c3ccccc3Br)nc2c1,120
3,O=C(O)/C(=C\c1cccc(Br)c1)NC(=O)c1ccccc1,5.7
4,CCOC(=O)CN1C(=O)C(O)(CC(=O)c2ccco2)c2ccccc21 (stereo unspecified),-4.5
5,Cc1nn(Cc2ccccc2)c(=O)n(Cc2ccccc2)c1=O,-5
6,Cc1ccccc1NC(=S)N1CCN(c2cccc(Cl)c2)CC1,-6.7
7,COc1ccc(C(=O)NCC2(c3ccccc3)CCCC2)c(OC)c1,-3.5
8,Cc1ccc(C2CC(C(F)(F)F)n3ncc(C(=O)N(Cc4ccccc4)Cc4ccccc4)c3N2)cc1 (stereo unspecified),3.4
9,CC(C)OC(=O)c1c(NC(=O)/C=C/C(=O)O)sc2c1CCCCC2,-7.2
10,Cn1cnnc1SCC(=O)c1ccc(-c2ccccc2)cc1,0
11,COC(=O)c1ccc(/C=C/C(=O)c2ccc(Cl)cc2)cc1,4.6
12,COc1ccccc1CNS(=O)(=O)c1ccc2ccccc2c1,-4
13,COc1ccc(Cc2noc(-c3ccc(Cl)cc3)n2)cc1,-7.5
14,Cc1cc(C)c(S(=O)(=O)Nc2cccc3ccc(C)nc23)c(C)c1,13
15,O=c1ccc2ccc(OCc3ccccc3Cl)cc2o1,12.8
16,CCOc1cc(/C=C2\SC(N)=NC2=O)cc(Br)c1OS(=O)(=O)c1ccc([N+](=O)[O-])cc1,18.3
17,Cc1nc2ccccc2n1S(=O)(=O)c1ccc2ccccc2c1,12.6
18,CC1CN(S(=O)(=O)c2ccccc2[N+](=O)[O-])CC(C)O1 (stereo unspecified),1.6
19,O=C(Nc1ccccc1C(=O)N1CCOCC1)c1ccc([N+](=O)[O-])cc1,3
20,COc1ccc(CNCc2ccncc2)cc1OC,17.8
21,COc1ccc(C(=O)/C=C\Nc2cc(Cl)ccc2O)c(OC)c1,10.1
22,O=C(COc1ccccc1Cl)NNC(=O)c1ccc(F)cc1,-4
23,CN1C(=O)NC(=O)/C(=C/c2cccn2-c2cccc([N+](=O)[O-])c2)C1=O,115
24,COc1ccc(-c2nc3ccccc3o2)cc1NC(=O)c1cc2ccccc2cc1OC,-8.6

row,Structure (SMILES),displacement [%]
1,COc1cc(C(=O)Nc2ccc3nn(-c4ccc(C)c(C)c4)nc3c2)cc(OC)c1OC,0.7
2,CCOC(=O)C1=C(C)NC(=O)NC1c1ccco1 (stereo unspecified),-5.1
3,CC1(C)CC(=O)c2c(nc(SC3C=CCCC3)c(C#N)c2-c2ccccc2)C1 (stereo unspecified),-13.6
4,CCOc1ccc(N(CC(=O)N(C)C)S(=O)(=O)c2ccc(SC)cc2)cc1,1.4
5,CCCOc1cccc(C(=O)Nc2ccc(Cl)cn2)c1,13.2
6,CCCc1nccn1S(=O)(=O)c1ccc(Br)c2ccccc12,12.3
7,CC1(C)CC(=O)C=C(NCCc2ccccc2)C1,-1.6
8,COc1cc(OC)cc(C(=O)Nc2ccc([N+](=O)[O-])cn2)c1,2.9
9,CC(C)(C)NCCOc1ccc(Cl)cc1Cl,7
10,CN=C1S/C(=C\c2cc3c(cc2Br)OCO3)C(=O)N1C,-7.3
11,Cc1cccc(N2C(=O)c3ccc(Oc4cccc([N+](=O)[O-])c4)cc3C2=O)c1C,16.8
12,CC(=O)Nc1ccc(N2C(=O)C3C4c5ccccc5C(c5ccccc54)C3C2=O)cc1Cl (stereo unspecified),0.8
13,CC(C)Cn1c(=S)[nH]c2sc3c(c2c1=O)CC(C)(C)OC3,-1.9
14,NC(=O)c1ccccc1NC(=O)COc1ccccc1Cl,-8.7
15,O=c1c([N+](=O)[O-])c(Cl)c2ccccc2n1-c1ccccc1,12.3
16,CCCC(C(=O)O)P(=O)(c1ccccc1)c1ccccc1 (stereo unspecified),0.6
17,COc1ccc(S(=O)(=O)Nc2cc(Br)c(O)c(Br)c2)cc1,0.7
18,CCOc1ccc(/C=C2\SC(=S)N(CCC(=O)Nc3cccnc3)C2=O)cc1,77
19,Cc1cccc(OCC(=O)Nc2ccc3oc4ccccc4c3c2)c1,-6.4
20,Cc1cc(OCC(=O)NCCCN2CCOCC2)ccc1Br,-48.8
21,Cc1cc(Cl)ccc1NC(=O)C(=O)N/N=C/c1cccs1,7.9
22,COc1ccc(-c2nnc(N)s2)cc1,-3.4
23,CCN(CC)C(=O)c1ccccc1NC(=O)c1ccccc1F,1.9
24,CC(C)(C)c1ccc(C=NN2CCN(Cc3ccccc3)CC2)cc1,-9.5

row,Structure (SMILES),displacement [%]
1,CN(C)c1ccc(/C=N/N2CCN(c3ccccn3)CC2)cc1,0.1
2,COc1cc(C2C(C(=O)OCCOc3ccccc3)=C(C)NC3=C2C(=O)CCC3)ccc1OC(C)=O (stereo unspecified),-7.6
3,Cc1cc2nn(-c3ccccc3)nc2cc1N,10.9
4,COC(=O)c1cc(C(=O)NC2CCSC2=O)cc([N+](=O)[O-])c1 (stereo unspecified),2.1
5,COc1cc(/C=N\N2CCN(c3ccc(C)cc3)CC2)ccc1OCc1ccccc1,9.6
6,Cc1cccc(C(NC(N)=O)c2ccccc2)c1 (stereo unspecified),-1
7,N/C(=N/c1nc2ccccc2o1)NC(=O)Nc1ccccc1,5.2
8,Nc1nc2ccccc2n1CCOc1ccc2ccccc2c1,-3.3
9,CCCCNCCCCCOc1ccccc1C(C)(C)C,9.1
10,Cc1cccc(-c2cc(C(=O)Nc3ccccc3C(N)=O)c3ccccc3n2)c1,-7.7
11,CCOc1cc(/C=C2\C(=O)N(c3cccc(C(=O)O)c3)N=C2C)cc(Br)c1O,-104
12,CC(C)(C)NC(=O)c1cccc(NC(=O)c2ccc(Cl)c(Cl)c2)c1,13.8
13,Nc1nnnn1/N=C/c1ccc(OCc2ccccc2)cc1,11.6
14,CCCCOc1ccc2c3c(cccc13)C(=O)c1ccccc1-2,176
15,O=C(NC(Cc1c[nH]c2ccccc12)C(=O)O)/C(=C/c1ccco1)NC(=O)c1ccccc1 (stereo unspecified),1.8
16,COc1ccc(C(=O)CC(c2ccc(C(C)C)cc2)S(=O)(=O)c2ccc(C)cc2)cc1 (stereo unspecified),33.8
17,CCCOc1ccc(C2C3=C(CC(C)(C)CC3=O)OC3=C2C(=O)CC(C)(C)C3)cc1OCC,6.1
18,O=C(O)c1cc(NC(=O)c2ccc3c(c2)C(=O)N(C2CCCCC2)C3=O)cc(C(=O)O)c1,10.9
19,CCCCOC(=O)c1cccc(NC(=O)c2cccc(Br)c2)c1,1.5
20,COc1ccccc1CC(=O)Nc1cc(C)ccn1,12.9
21,O=C(CN1C(=O)c2cccc3cccc(c23)C1=O)OCc1ccc2c(c1)OCO2,-2.1
22,O=C(O)CCCN1C(=O)/C(=C\c2ccc(-c3cccc([N+](=O)[O-])c3)o2)SC1=S,59
23,COc1cccc(/C=N/N=C2/NC(=O)CS2)c1,4.6
